From PubChem BioAssay AID488969 (Vanderbilt High Throughput Screening Facility, 2010)
The full ranking holds about 110,000 compounds; the median of “z-score” is about -0.1, and the highest 2% start at about 2. Some of the results follow.

What follows are compounds tested against Metabotropic glutamate receptor 8 (Rattus norvegicus) (UniProt P70579) (assay: mGluR8 Gi/Go-coupled signaling modulation – cell-based, rat, thallium flux, HTS, primary screen (AID 488969)). Settings: HEK293 rat mGluR8, GIRK (G protein-gated inwardly rectifying potassium channel) thallium flux, FluoZin2; at 10 µM; stronger effect = higher value; submaximal glutamate (EC20) added with thallium.
UniProt P70579, sequence (P70579 whole entry, looked up): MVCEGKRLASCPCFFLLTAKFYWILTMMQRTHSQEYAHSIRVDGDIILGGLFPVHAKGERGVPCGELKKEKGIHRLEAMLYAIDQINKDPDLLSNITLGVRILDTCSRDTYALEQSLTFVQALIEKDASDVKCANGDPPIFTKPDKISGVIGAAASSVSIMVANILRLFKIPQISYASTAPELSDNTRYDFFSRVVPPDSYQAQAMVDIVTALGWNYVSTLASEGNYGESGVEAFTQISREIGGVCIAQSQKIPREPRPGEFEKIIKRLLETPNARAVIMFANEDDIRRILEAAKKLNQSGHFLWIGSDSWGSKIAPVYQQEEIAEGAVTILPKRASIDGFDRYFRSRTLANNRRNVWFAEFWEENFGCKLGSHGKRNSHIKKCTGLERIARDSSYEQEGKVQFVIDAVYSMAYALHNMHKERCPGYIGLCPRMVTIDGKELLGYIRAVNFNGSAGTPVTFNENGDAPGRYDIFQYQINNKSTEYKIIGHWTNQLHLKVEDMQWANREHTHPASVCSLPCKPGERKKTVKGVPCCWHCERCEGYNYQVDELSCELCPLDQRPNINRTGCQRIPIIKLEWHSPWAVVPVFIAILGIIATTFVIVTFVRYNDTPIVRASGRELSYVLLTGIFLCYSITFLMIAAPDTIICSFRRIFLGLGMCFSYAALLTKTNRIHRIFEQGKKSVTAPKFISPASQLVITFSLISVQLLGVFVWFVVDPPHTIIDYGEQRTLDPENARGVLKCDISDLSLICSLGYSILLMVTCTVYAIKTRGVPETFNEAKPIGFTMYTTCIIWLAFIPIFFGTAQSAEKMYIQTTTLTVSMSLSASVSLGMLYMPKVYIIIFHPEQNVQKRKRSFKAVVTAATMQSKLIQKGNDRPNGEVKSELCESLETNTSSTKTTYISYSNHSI

SMILES | z-score
Cc1cc(C)cc(OCC(=O)Nc2ccc(F)cc2)c1 | -0.191
Cc1ccc2c(c1)nnn2C1CCN(S(=O)(=O)c2ccc3ccccc3c2)CC1 | -0.698
CC(C)CNC(C(=O)Nc1ccc([N+](=O)[O-])cc1Br)c1ccccc1 (configuration not stated) | -0.337
CCOc1ccc(CC(=O)OCN2C(=O)c3ccccc3C2=O)cc1 | -0.211
Cc1c(C(=O)Nc2nc3ccccc3[nH]2)oc2ccc(Br)cc12 | -0.0784
COc1ccc(-n2c(SCC(=O)Nc3cc(C)on3)nc3c(c2=O)SCC3)cc1 | -0.275
CCCc1cc(=O)[nH]c(SCC(=O)c2c(N)n(C)c(=O)n(C)c2=O)n1 | -1.04
Cc1ccc(/C=N/n2c(C)nnc2C)o1 | -0.158
CCc1ccccc1N1C(=O)c2ccccc2S1(=O)=O | -0.409
Cc1noc(C)c1C(=O)Nc1sc2c(c1C(N)=O)CCC2 | -0.0007
CCOC(=O)C1CCN(S(=O)(=O)c2ccc(OC)c(OC)c2)CC1 | -0.335
O=C(OC1CCOC1=O)c1cccc(S(=O)(=O)Nc2cccc(Cl)c2)c1 (configuration not stated) | -0.013
O=C(Nc1ccc(F)cc1F)N1CCN(C/C=C/c2ccccc2)CC1 | 0.319
COC(=O)c1cc(NC(=O)CN(c2ccccc2OC)S(=O)(=O)c2ccccc2)ccc1Cl | -0.231
CC(C)[C@H](NC(=O)OC(C)(C)C)C(=O)N/N=C/c1cccc2nccnc12 | -0.141
Cc1cc(OCC(F)(F)C(F)(F)C(F)(F)C(F)(F)C(F)(F)C(F)F)nc(N)n1 | 0.795
COc1ccc(CC(=O)OCCN(C)C)cc1 | 0.0321
CCOc1cc(C=C2C(=O)c3ccccc3C2=O)ccc1OCC(=O)Nc1ccc(C)cc1 | -0.0379
Cc1cc(C)cc(NS(=O)(=O)c2cnc(Cl)c(Cl)c2)c1 | -0.179
CC(=O)/C(=N/Nc1ccccc1C)N1CCOCC1 | -0.117
CCOC(=O)c1sc(NC(=O)CNC(=O)Cn2cnc3sc(C)c(C)c3c2=O)nc1C | 0.101
Cc1[nH]c2ccccc2c1C(=O)CN1CCC2(CC1)OCCO2 | -0.0577
Cc1cc(Oc2ccccc2)nc(SCC(=O)Nc2ccccc2)n1 | 1.61
NC(=O)c1cc2n(n1)C(C(F)(F)F)CC(c1ccco1)N2 (configuration not stated) | 0.154

SMILES | z-score
COc1ccc(-c2nc(CSCC(=O)NC3CCCc4ccccc43)c(C)o2)cc1OC (configuration not stated) | 0.0311
CNC(=O)Nc1nnc(C(C)(C)C)s1 | -0.522
Cc1nn(C)c(C)c1NC(=O)c1ccnn1C | -0.0844
Cc1cccc(Oc2ncnc3onc(C)c23)c1 | 0.0845
Cn1c(NN)nc2sc3c(c2c1=O)CCC3 | -0.0646
COc1ccc(C(c2nnnn2Cc2cccs2)N2CCN(c3ccccc3F)CC2)cc1 (configuration not stated) | 0.62
O=C(CSCc1ccccc1)Nc1ccc(S(=O)(=O)N2CCOCC2)cc1 | -0.124
Fc1ccc(Cn2c(-c3cscn3)nc3ccccc32)c(Cl)c1 | -0.154
CC(C)CC(=O)Nc1nnn(C)n1 | 0.332
Cc1ccc(NC(=O)c2ccco2)cc1C | 0.23
CCOC(=O)/C(=C\Nc1ccccc1C(F)(F)F)Sc1ncc(C(F)(F)F)cc1Cl | -0.191
Cc1cccc(N(CC(=O)N2CCOCC2)S(C)(=O)=O)c1 | -0.316
O=C(COC(=O)c1cc(-c2ccccc2Cl)nc2ccccc12)Nc1ncc(C(F)(F)F)cc1Cl | -0.65
CC1=CCC2C(=O)N(CCc3c[nH]c4ccccc34)C(=O)C2C1 (configuration not stated) | -0.147
O=C(/C=C/NCc1ccc(F)cc1)c1ccccc1 | -0.0387
O=C(CNS(=O)(=O)c1ccccc1)OCc1cccc([N+](=O)[O-])c1 | -0.557
CC1CCN(S(=O)(=O)c2ccc(NC(=O)Cc3cccs3)cc2)CC1 | 0.311
COC(=O)c1ccccc1N/C=C/C(=O)c1ccc(Br)cc1 | 0.287
O=C(CSc1nnc(Nc2ccccc2F)s1)NCc1ccco1 | 0.824
CS(=O)(=O)N1CCc2cc(C(=O)O)ccc21 | 1.16
Cn1c(SCC(=O)Nc2cccc3ccccc23)nc(O)cc1=O | -0.188
Cc1ccc(-c2nnc(Nc3ccc4c(c3)OCO4)c3ccccc23)cc1S(=O)(=O)NCCO | -0.266
Cc1ccc(Nc2nc(CSc3nnc(-c4ccccc4C)n3C)cs2)cc1 | -0.618
O=C(c1cccs1)c1cn(CC(=O)N2CCc3ccccc3C2)c2ccccc12 | -0.134

SMILES | z-score
COCCn1c(=S)[nH]c2cc(OC)c(OC)cc2c1=O | -0.0151
COc1ccc(CNC(=O)c2csc(Cc3ccc(OC)cc3)n2)cc1 | -0.382
CC(C(=O)O)n1c(C(F)(F)F)nc2ccccc21 (configuration not stated) | 0.219
COc1cccc(-c2cc(C(=O)N/N=C/c3ccc(OC)c(COC(C)=O)c3)c3ccccc3n2)c1 | 0.189
c1ccc(CCc2ccccc2-c2nc(-c3cccnc3)no2)cc1 | 0.0978
COc1cc(NC(=S)NCc2ccc(S(N)(=O)=O)cc2)c(OC)cc1Cl | 0.196
CN(C)C(=O)c1c2c(nc3ccccc13)-c1ccccc1CC2 | -0.675
O=C(Nc1cccc2c1CCCC2)c1ccncc1 | 0.637
CCOC(=O)N1CCN(c2c(NC3CCN(Cc4ccccc4)CC3)c(=O)c2=O)CC1 | -0.572
COc1ccc(N2CCC(CNC(=S)Nc3cccc(OC)c3)C2)cc1 (configuration not stated) | -0.0452
COc1ccccc1C1C(C(C)=O)=C(O)C(=O)N1CCc1ccccc1 (configuration not stated) | -1.28
CC(C)NCCCCOc1ccccc1-c1ccccc1 | 0.151
O=C(Nc1ccncc1)C1CCCN(S(=O)(=O)c2cccc3cccnc23)C1 (configuration not stated) | -0.00286
C=CCn1c(SCC(=O)O)nnc1-c1cccc(Cl)c1 | -0.129
O=C(CN1CCN(Cc2ccccc2)CC1)N/N=C/C=C/c1ccco1 | -0.481
CCOC(=O)/C(=C/c1ccc(OC)cc1)NC(=O)c1ccco1 | -0.186
CC(=O)Nc1ccc(SCC(=O)Nc2ccccc2Oc2ccccc2)cc1 | -0.775
Cc1ccc(-n2c(O)c(C=NC3CCS(=O)(=O)C3)c3ccccc3c2=O)cc1 (configuration not stated) | -0.486
CCOc1cccc(-c2nnc(SCC(=O)Nc3cccc(OC)c3)n2N)c1 | 0.0928
CCOC(=O)Nc1cc(C(=O)OC)ccc1C | -0.0572
COc1cc(OC)cc(C(=O)NC(=S)Nc2ccc3c4c(cccc24)CC3)c1 | 0.967
NC(=O)c1c(NC(=O)CN2CCCC2)sc2c1CCCC2 | -0.047
N/C(=N\OC(=O)Cc1cccs1)c1ccc([N+](=O)[O-])cc1 | -0.185
Cc1cccc2cc(CN(Cc3cccnc3)C(=O)c3ccccc3F)c(Cl)nc12 | -1.02
